Source: the antibiotic and cytotoxicity screens of Wong et al. (2023)
Some of the results follow.

Assays:
HSkMC = human skeletal muscle cells; experiment: cytotoxicity call (relative viability < 0.9); settings: 10 µM
HepG2 = experiment: cytotoxicity call (relative viability < 0.9); settings: 10 µM
S. aureus RN4220 = experiment: growth inhibition call (relative growth <= 0.2); settings: 50 µM

Question: For C[C@@H]1CCCCO[C@H](CN(C)C(=O)CCC(F)(F)F)[C@@H](C)CN([C@H](C)CO)C(=O)c2cc(NC(=O)CCCCCC(=O)Nc3ccccc3N)ccc2O1, which cytotoxicity call (HSkMC) is on record?
Answer: inactive

Question: And the cytotoxicity call (HepG2)?
Answer: inactive

Question: What about the growth inhibition call (S. aureus RN4220) of the same molecule?
Answer: inactive

Question: How did the cytotoxicity call (HSkMC) turn out when O=C(C[C@H]1CC[C@@H]2NC[C@H](O)COC[C@H]2O1)NCCN1CCCC1 was run?
Answer: inactive

Question: What about the cytotoxicity call (HepG2) of the same molecule?
Answer: inactive

Question: What about the growth inhibition call (S. aureus RN4220) of the same molecule?
Answer: inactive

Question: How did the cytotoxicity call (HSkMC) turn out when C[C@@H]1CN([C@@H](C)CO)C(=O)Cc2cc(NC(=O)CCCCCC(=O)Nc3ccccc3N)ccc2O[C@@H]1CN(C)S(=O)(=O)c1cn(C)cn1 was run?
Answer: inactive

Question: What about the cytotoxicity call (HepG2) of the same molecule?
Answer: inactive

Question: And the growth inhibition call (S. aureus RN4220)?
Answer: inactive

Question: What does the source list for COc1ccc(S(=O)(=O)N[C@H]2CC[C@@H](CC(=O)N3CCN(c4ccccc4)CC3)O[C@@H]2CO)cc1?
Answer: cytotoxicity call (HSkMC): inactive; cytotoxicity call (HepG2): inactive; growth inhibition call (S. aureus RN4220): inactive

Question: O=C1CSC(=S)N1 was tested. Which cytotoxicity call (HSkMC) did it give?
Answer: inactive

Question: What about the cytotoxicity call (HepG2) of the same molecule?
Answer: inactive

Question: What about the growth inhibition call (S. aureus RN4220) of the same molecule?
Answer: inactive

Question: With O=C(O)c1ccc(S(=O)(=O)N(Cl)Cl)cc1 as the molecule, how does the cytotoxicity call (HSkMC) read?
Answer: inactive

Question: What about the cytotoxicity call (HepG2) of the same molecule?
Answer: inactive

Question: And the growth inhibition call (S. aureus RN4220)?
Answer: inactive

Question: With C[C@@H]1CCCCO[C@H](CN(C)S(=O)(=O)c2ccc(F)cc2)[C@H](C)CN([C@H](C)CO)C(=O)c2cc(NC(=O)C3CCCCC3)ccc2O1 as the molecule, how does the cytotoxicity call (HSkMC) read?
Answer: inactive

Question: What about the cytotoxicity call (HepG2) of the same molecule?
Answer: inactive

Question: What about the growth inhibition call (S. aureus RN4220) of the same molecule?
Answer: inactive

Question: CN1C(=O)c2cc(NS(=O)(=O)c3ccc(F)cc3)ccc2OC[C@@H]2O[C@H](CC(=O)NCC(F)(F)F)CC[C@@H]21 was tested. Which cytotoxicity call (HSkMC) did it give?
Answer: inactive

Question: And the cytotoxicity call (HepG2)?
Answer: inactive

Question: And the growth inhibition call (S. aureus RN4220)?
Answer: inactive

Question: How did the cytotoxicity call (HSkMC) turn out when Cc1ccc(S(=O)(=O)N(C)C[C@H]2OCCCC[C@H](C)Oc3ccc(NC(=O)Nc4ccc(C(F)(F)F)cc4)cc3C(=O)N([C@H](C)CO)C[C@H]2C)cc1 was run?
Answer: inactive

Question: And the cytotoxicity call (HepG2)?
Answer: inactive

Question: And the growth inhibition call (S. aureus RN4220)?
Answer: inactive

Question: For CN(C)CC(=O)N[C@H]1CC[C@@H](CCNC(=O)C2CCC2)O[C@@H]1CO, which cytotoxicity call (HSkMC) is on record?
Answer: inactive

Question: And the cytotoxicity call (HepG2)?
Answer: inactive

Question: What about the growth inhibition call (S. aureus RN4220) of the same molecule?
Answer: inactive

Question: Cc1noc(C)c1NC(=O)Nc1ccc2c(c1)C(=O)N([C@@H](C)CO)C[C@H](C)[C@@H](CN(C)CC1CC1)OCCCC[C@H](C)O2 was tested. Which cytotoxicity call (HSkMC) did it give?
Answer: inactive

Question: What about the cytotoxicity call (HepG2) of the same molecule?
Answer: inactive

Question: And the growth inhibition call (S. aureus RN4220)?
Answer: inactive

Question: For COC(=O)C=CC(C)=CC=CC(C)=CC=CC=C(C)C=CC=C(C)C=CC(=O)O, which cytotoxicity call (HSkMC) is on record?
Answer: inactive

Question: And the cytotoxicity call (HepG2)?
Answer: inactive

Question: And the growth inhibition call (S. aureus RN4220)?
Answer: inactive

Question: Which results are given for C[C@@H]1CN([C@@H](C)CO)C(=O)c2cc(NC(=O)CCC(F)(F)F)ccc2O[C@@H](C)CCCCO[C@@H]1CN(C)C(=O)c1ccccc1?
Answer: cytotoxicity call (HSkMC): inactive; cytotoxicity call (HepG2): inactive; growth inhibition call (S. aureus RN4220): inactive

Question: C[C@H]1CN([C@@H](C)CO)C(=O)Cc2cc(NS(C)(=O)=O)ccc2O[C@H]1CN(C)S(=O)(=O)c1ccccc1 was tested. Which cytotoxicity call (HSkMC) did it give?
Answer: inactive

Question: And the cytotoxicity call (HepG2)?
Answer: inactive

Question: What about the growth inhibition call (S. aureus RN4220) of the same molecule?
Answer: inactive

Question: How did the cytotoxicity call (HSkMC) turn out when CN1CCN(C(=O)C[C@@H]2CC[C@H]3[C@@H](COC[C@H](O)CN3C(=O)C3CCCC3)O2)CC1 was run?
Answer: inactive

Question: And the cytotoxicity call (HepG2)?
Answer: inactive

Question: What about the growth inhibition call (S. aureus RN4220) of the same molecule?
Answer: inactive

Question: With C[C@@H]1CCCCO[C@H](CN(C)S(=O)(=O)c2ccc(Cl)cc2)[C@H](C)CN([C@@H](C)CO)C(=O)c2cc(NC(=O)CCC(F)(F)F)ccc2O1 as the molecule, how does the cytotoxicity call (HSkMC) read?
Answer: inactive

Question: And the cytotoxicity call (HepG2)?
Answer: inactive

Question: What about the growth inhibition call (S. aureus RN4220) of the same molecule?
Answer: inactive

Question: C[C@@H]1CN([C@H](C)CO)S(=O)(=O)c2ccc(C#CC3CCCC3)cc2O[C@@H]1CN(C)Cc1cncnc1 was tested. Which cytotoxicity call (HSkMC) did it give?
Answer: inactive

Question: And the cytotoxicity call (HepG2)?
Answer: inactive

Question: And the growth inhibition call (S. aureus RN4220)?
Answer: inactive

Question: With C[C@@H]1CCCCO[C@H](CN(C)C(=O)c2ccncc2)[C@@H](C)CN([C@@H](C)CO)C(=O)c2cc(NC(=O)NC3CCCCC3)ccc2O1 as the molecule, how does the cytotoxicity call (HSkMC) read?
Answer: inactive

Question: And the cytotoxicity call (HepG2)?
Answer: inactive

Question: And the growth inhibition call (S. aureus RN4220)?
Answer: inactive

Question: What does the source list for CC(NCCCc1cccc(C(F)(F)F)c1)c1cccc2ccccc12.Cl (stereo unspecified)?
Answer: cytotoxicity call (HSkMC): inactive; cytotoxicity call (HepG2): inactive; growth inhibition call (S. aureus RN4220): active

Question: Which cytotoxicity call (HSkMC) does the source give for Cc1ccc(S(=O)(=O)N(C)C[C@H]2OCCCC[C@H](C)Oc3ccc(NC(=O)Nc4ccc5c(c4)OCO5)cc3C(=O)N([C@H](C)CO)C[C@@H]2C)cc1 here?
Answer: inactive

Question: What about the cytotoxicity call (HepG2) of the same molecule?
Answer: inactive

Question: What about the growth inhibition call (S. aureus RN4220) of the same molecule?
Answer: inactive

Question: Which results are given for C[C@@H]1CCCCO[C@@H](CN(C)C(=O)c2ccccc2)[C@@H](C)CN([C@@H](C)CO)C(=O)c2cc(NS(=O)(=O)c3cccs3)ccc2O1?
Answer: cytotoxicity call (HSkMC): inactive; cytotoxicity call (HepG2): inactive; growth inhibition call (S. aureus RN4220): inactive

Question: C[C@@H]1CN([C@H](C)CO)C(=O)Cc2cc(N(C)C)ccc2O[C@@H]1CN(C)C(=O)Nc1ccc2c(c1)OCO2 was tested. Which cytotoxicity call (HSkMC) did it give?
Answer: inactive

Question: What about the cytotoxicity call (HepG2) of the same molecule?
Answer: inactive

Question: What about the growth inhibition call (S. aureus RN4220) of the same molecule?
Answer: inactive

Question: Which results are given for C[C@H](CO)N1C[C@H](C)[C@@H](CN(C)Cc2ccc(Cl)c(Cl)c2)Oc2ccc(NC(=O)Cc3ccccc3)cc2C1=O?
Answer: cytotoxicity call (HSkMC): inactive; cytotoxicity call (HepG2): inactive; growth inhibition call (S. aureus RN4220): inactive

Question: With Cc1ccc2sc(C)nc2c1 as the molecule, how does the cytotoxicity call (HSkMC) read?
Answer: inactive

Question: And the cytotoxicity call (HepG2)?
Answer: inactive

Question: What about the growth inhibition call (S. aureus RN4220) of the same molecule?
Answer: inactive

Question: COc1ccc(S(=O)(=O)N(C)C[C@H]2Oc3ccc(NS(=O)(=O)c4ccc(F)cc4)cc3CC(=O)N([C@H](C)CO)C[C@@H]2C)cc1 was tested. Which cytotoxicity call (HSkMC) did it give?
Answer: inactive

Question: And the cytotoxicity call (HepG2)?
Answer: inactive

Question: And the growth inhibition call (S. aureus RN4220)?
Answer: inactive

Question: Which cytotoxicity call (HSkMC) does the source give for CCc1nc2ccc(C(=O)NCCCN3CCCC3=O)cn2c1N(CC)C(=O)NCCc1ccccc1 here?
Answer: inactive

Question: What about the cytotoxicity call (HepG2) of the same molecule?
Answer: inactive

Question: And the growth inhibition call (S. aureus RN4220)?
Answer: inactive

Question: For O=C(C[C@@H]1C=C[C@H](NC(=O)CN2CCOCC2)[C@H](CO)O1)NC1CCC1, which cytotoxicity call (HSkMC) is on record?
Answer: inactive

Question: What about the cytotoxicity call (HepG2) of the same molecule?
Answer: inactive

Question: And the growth inhibition call (S. aureus RN4220)?
Answer: inactive
